From the supplement of paper PMC10126150
Values marked as one replicate rest on one cluster of the flow cell; about a third of the high ones do not repeat.

Test system: ATP
Assay: switch fluorescence ratio, 500 uM ATP over buffer (Cy3 cluster intensity, sum of 5 cycles each) (fold (ratio)); higher = stronger signal-on switching upon ATP binding; sequences stand for … in TCGTCGGCAGCGTCAGATGTGTATAAGAGACAGTTTTTTTTTTTTTTTTTTTTTTTTT…TC
Settings: aptamer strand: ATP DNA aptamer (quencher-CACCTGGGGGAGTATTGCGGAGGAAGG + anchor), 100 nM annealed; ATP concentration: 500 uM; one replicate
Method in brief: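 Five buffer/ATP imaging cycles were run on Cy3-labelled switching-strand clusters on a modified Illumina MiSeq flow-cell, with NaOH stripping and re-annealing between cycles. In each cycle, clusters annealed to 100 nM quencher-labelled ATP aptamer were imaged in selection buffer, then after 15 min with 500 uM ATP at 22 °C. Per cluster, the fluorescence ratio is summed target-cycle over summed buffer-cycle Cy3 intensity, averaged per switch-domain sequence. Only clusters within 100-1000 RFU were kept.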
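Note: ATP exposure 15 min at 22 °C before imaging.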

Sequence | switch fluorescence ratio
AGGGCGTAAT | 1.01
AGTGGTATGC | 1.05
TTTCCCCCGT | 1.05
TGCATAAGGG | 1.01
ACATCTTTCA | 1.05
CCAGAACCCT | 1.08
GACAAAAGCG | 1.04
ACGACCGAAT | 1.14
AAATGGAGTT | 1.05
GTTGAGCTCT | 0.981
GATTAAAATA | 1.07
ACCCCACCGA | 1.37
AGGCTCTCAA | 1.07
GGGACCAGGT | 1.03
GGGTTGCTCG | 0.994
GGGCGTCGT | 0.994
TACTGTTTTC | 1.01
GAGTAATAGA | 0.993
GTTTTATTGG | 1.01
AAAGGAAGGC | 1.02
TATCTGGTGT | 1.01
TCATTAGCAC | 0.954
TCGAGTTATA | 0.998

Sequence | switch fluorescence ratio
AATAGGAGGT | 1
TGGACTTGAG | 0.982
TTCCAGACGC | 1.64
AGATGCACAT | 1.03
TTTACCTGTG | 1.02
TTGGATCGTA | 1.01
TTAAGAACTT | 0.994
CTGAGCATCC | 1.5
CGATGCTCTA | 0.967
TTTGCTGTGT | 1.03
TTGTTCTGTT | 0.97
CCTGTCTGTC | 1.03
CGAAAATCAT | 1.02
GTGGTGTA | 1.01
GCTGTAACAA | 0.994
GCGATCTGG | 1.02
GGGCGTTACC | 1
ACTGGAATTA | 0.997
ATGGGGACGC | 1
TGACAGGGCA | 0.993
TAATTAGTAG | 0.954
AGCACTGTTG | 1.01
GGCAACAAAA | 0.995

Sequence | switch fluorescence ratio
TTTAATCCTA | 0.978
ACCACGAACC | 1.52
CAGACTTCCG | 1.05
TATTTCGGGC | 1.09
GCGACGGGTG | 1.06
AGAAGCGTTC | 1.05
AGCCAGTGTG | 1.59
ATCGCTTTAG | 1.01
CGAGAGGTCA | 0.978
TCCTGGGACA | 0.971
AAATAATGCT | 1.03
AACTGCTGTT | 1.06
AGACAAGTCC | 1.05
CTGAGTGGAT | 0.989
ACCTAGTG | 1.02
CCTTTGCGGA | 1.94
CATCACCCTG | 1.02
GGGTTCTCC | 1.26
GTGGCCAAAT | 1.02
ACTGGGACGT | 1.04
AGCGTAATTC | 1
CGCGGGGTAT | 0.999
AACACAATAT | 1.2

Sequence | switch fluorescence ratio
CAGGGGCGAG | 0.974
CGCTTGCCTG | 1.03
AGGTTGACGG | 0.99
AAAGAAGTAG | 1.01
ATAGTCTCAA | 0.996
AATGTTC | 1.01
TGTATTTCAG | 0.988
ATAGTTCCTT | 1.01
ATACAGGGT | 1
TGGCACTGTT | 1
TATGAGGTCA | 0.994
TCAGGTGATG | 1.21
TCTTTCAACC | 1
AACGATATAT | 1.11
ATGGCGCCCG | 1.02
CTCTACCCTA | 1.05
ATAGAGGGGC | 1.04
GGCGGCCAAT | 1.01
ACTCCGGAGT | 1.03
GGTTGGACGA | 0.926
AGATTCCGCA | 1.44
CATCGTCAAG | 1.01
TGCCTCATAG | 1

Sequence | switch fluorescence ratio
GGACTTCGGG | 0.957
GGATGGCTGC | 0.956
CAATCATCAG | 0.997
CGTTGGTGCA | 1.05
TGGGAGCCGG | 1.05
TTTGTAGCAA | 2.27
TGTATATTGC | 0.964
CTTCATTCAT | 0.991
CACTATTATT | 0.945
GTCACTTTTC | 2.09
ATTCGACC | 1.01
GAGGTCTAGT | 1.01
TACACCCATT | 1.03
GATCAAGGAG | 1
TCACTGTAA | 1.2
ATAAGAGCCA | 1.03
TAGCGGGGA | 1.07
TTTCAGAAAC | 1.2
TGCAAGACTA | 3.59
GCAACACTGA | 1.1
CAATTCCATC | 1.01
ACGTAGCTT | 2.03
GGACAAATGT | 0.995

Sequence | switch fluorescence ratio
TAGAAAACAT | 1.01
CTTATTAGTA | 0.961
TCCGCCAACA | 2.44
ACCGCGGAGG | 0.972
TTGGTTGTTG | 1
AGTGGAACCC | 0.997
AAAATTTGT | 1.02
CTCAGCATAG | 4.63
ACTTGTATT | 1.04
TCGTTGTTAC | 1.07
ATCAAATTTG | 0.991
ATAGTTCATT | 1.04
GGTCATTCTG | 0.993
TGTGGAATTG | 0.955
GCCAAAAGCG | 1.05
TGGTCGCT | 1.02
CAATTGTCGA | 1.03
CTGTATGGCT | 0.968
TGGGATCTGT | 0.964
TTCTATTGC | 1.07
CGCAGATGTG | 0.992
ATCAACGAAT | 0.965
CAATAGAA | 0.983

Sequence | switch fluorescence ratio
CAAACTCGAA | 0.995
GGGCCACGAA | 0.973
CGGAGACTGC | 1.05
AAACGGGTTG | 1.01
AACTACGGTC | 1.14
GACATCAGGC | 0.99
TTAGCGTGTC | 1
GCAGTTGAAT | 1.03
AACTAGTACG | 0.989
TGAACTCCAT | 1.01
CATATCATGC | 0.984
ACTTTTTTTG | 1.02
AGAAATTT | 0.98
CCTCCTGTTT | 1.92
CGAGTCTTAC | 1.06
GACAATATGT | 1.04
AAAGATCTAG | 0.994
CCGCGGATTG | 0.998
CTCGGACGGC | 1.01
CATAATAATT | 0.998
